The target in experiment [1] is T1, TRAF3 (endogenous, mouse peritoneal macrophages) (mouse (endogenous in peritoneal macrophages)) (UniProt Q60803).
T1 sequence: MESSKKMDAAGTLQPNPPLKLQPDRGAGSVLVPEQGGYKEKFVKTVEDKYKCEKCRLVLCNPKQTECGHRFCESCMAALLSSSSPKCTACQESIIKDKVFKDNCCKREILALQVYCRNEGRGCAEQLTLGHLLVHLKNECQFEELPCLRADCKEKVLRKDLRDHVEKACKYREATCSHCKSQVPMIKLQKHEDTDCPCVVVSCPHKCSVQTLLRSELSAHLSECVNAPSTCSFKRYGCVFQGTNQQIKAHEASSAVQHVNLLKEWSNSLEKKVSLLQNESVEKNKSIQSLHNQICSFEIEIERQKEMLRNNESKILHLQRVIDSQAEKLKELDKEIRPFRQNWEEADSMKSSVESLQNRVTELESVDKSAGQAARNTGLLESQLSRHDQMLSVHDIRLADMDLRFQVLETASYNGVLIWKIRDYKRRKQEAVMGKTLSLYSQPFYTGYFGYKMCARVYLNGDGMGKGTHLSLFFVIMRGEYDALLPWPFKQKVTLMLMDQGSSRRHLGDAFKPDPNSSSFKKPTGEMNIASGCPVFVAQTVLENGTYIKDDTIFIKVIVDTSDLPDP
Briefly: co-IP; endogenous proteins in lysates of mouse peritoneal macrophages (WT and Otud5 CKO), LPS 100 ng/mL for various times; IP buffer 1% NP-40, 150 mM NaCl, 10 mM Tris-HCl pH 7.4, 1 mM EDTA; immunoblot.

Amino acid sequences for entries named in this document (tags omitted).
UniProt P22366: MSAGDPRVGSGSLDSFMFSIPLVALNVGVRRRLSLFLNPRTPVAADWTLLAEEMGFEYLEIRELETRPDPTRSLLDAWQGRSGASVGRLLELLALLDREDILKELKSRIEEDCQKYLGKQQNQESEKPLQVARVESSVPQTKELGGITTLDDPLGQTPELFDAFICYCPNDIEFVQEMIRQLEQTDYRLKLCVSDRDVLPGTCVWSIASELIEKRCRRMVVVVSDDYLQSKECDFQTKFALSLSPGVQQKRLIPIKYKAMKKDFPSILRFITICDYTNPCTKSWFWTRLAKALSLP
UniProt Q99836: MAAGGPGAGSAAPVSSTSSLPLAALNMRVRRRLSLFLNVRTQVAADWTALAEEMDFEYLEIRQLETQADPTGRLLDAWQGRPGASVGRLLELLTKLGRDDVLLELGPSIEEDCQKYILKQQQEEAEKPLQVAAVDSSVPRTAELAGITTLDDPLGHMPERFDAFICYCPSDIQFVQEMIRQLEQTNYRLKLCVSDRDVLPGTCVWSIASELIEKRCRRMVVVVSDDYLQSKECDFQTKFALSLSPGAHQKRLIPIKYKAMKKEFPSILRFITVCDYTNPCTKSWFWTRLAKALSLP

For experiment [2], the target named is MyD88 (endogenous, mouse peritoneal macrophages) (mouse (endogenous in peritoneal macrophages)) (UniProt P22366). Described as above.
Another experiment has as its target Myc-MyD88 (WT) (human) (UniProt Q99836). The experiment is described as follows: co-IP; HEK293T cells co-transfected with tagged plasmids; IP buffer 1% NP-40, 150 mM NaCl, 10 mM Tris-HCl pH 7.4, 1 mM EDTA; antibody with Protein A/G PLUS Agarose overnight; immunoblot.
For the next experiment, the target named is T2, Flag-OTUD5 (WT) (human) (UniProt Q96G74).
T2 sequence: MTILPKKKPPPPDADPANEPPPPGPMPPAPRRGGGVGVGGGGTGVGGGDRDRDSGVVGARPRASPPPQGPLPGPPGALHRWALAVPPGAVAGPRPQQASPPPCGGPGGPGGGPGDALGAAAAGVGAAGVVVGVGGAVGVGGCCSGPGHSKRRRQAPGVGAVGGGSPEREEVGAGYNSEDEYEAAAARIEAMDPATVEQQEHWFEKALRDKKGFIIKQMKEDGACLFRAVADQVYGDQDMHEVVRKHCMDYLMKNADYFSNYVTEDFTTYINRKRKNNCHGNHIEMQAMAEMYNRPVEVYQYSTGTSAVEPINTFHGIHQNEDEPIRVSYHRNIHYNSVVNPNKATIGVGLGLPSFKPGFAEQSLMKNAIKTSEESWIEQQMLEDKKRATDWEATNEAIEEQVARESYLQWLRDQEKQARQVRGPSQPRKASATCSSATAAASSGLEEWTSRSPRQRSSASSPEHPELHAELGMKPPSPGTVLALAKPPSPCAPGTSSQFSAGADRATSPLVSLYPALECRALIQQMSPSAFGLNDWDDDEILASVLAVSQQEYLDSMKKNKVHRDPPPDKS
Described as above.

Results are given in words; binding and its absence hold for the method and conditions named. Binding seen in cells or lysates may run through a third protein. Some entries that bind do so weakly or less than the wild type. For some assays here: Sequences can lack the tags named with a protein.

B1: OTUD5 (endogenous, mouse peritoneal macrophages) (enzyme, UniProt Q3U2S4 1-566)
chain: MTILPKKKPPPPDADPANEPPPPGPLPPAPRRGAGVGVGGGGTGVGGGERDRDSGVVGARPRASPPPQGPLPGPPGALHRWALAVPPGAVAGPRPQQASPPPCGGPGGPGGGPGDALGATTAGVGAAGVVVGVGGTVGVGGCCSGPGHSKRRRQAPGVGAVGGASPEREEVGAGYNSEDEYEAAAARIEAMDPATVEQQEHWFEKALRDKKGFIIKQMKEDGACLFRAVADQVYGDQDMHEVVRKHCMDYLMKNADYFSNYVTEDFTTYINRKRKNNCHGNHIEMQAMAEMYNRPVEVYQYSTEPINTFHGIHQNEDEPIRVSYHRNIHYNSVVNPNKATIGVGLGLPSFKPGFAEQSLMKNAIKTSEESWIEQQMLEDKKRATDWEATNEAIEEQVARESYLQWLRDQEKQARQVRGPSQPRKASATCSSATAAASSGLEEWTSRSPRQRSSASSPEHPELHAELGIKPPSPGTVLALAKPPSPCAPGTSSQFSAGGDRATSPLVSLYPALECRALIQQMSPSAFGLNDWDDDEILASVLAVSQQEYLDSMKKNKVHREPPPDKS
With B1, the binding result in experiment [1] and in experiment [2] was “binds” throughout.

B2: Flag-OTUD5 (WT) (enzyme, UniProt Q96G74 1-571)
chain: MTILPKKKPPPPDADPANEPPPPGPMPPAPRRGGGVGVGGGGTGVGGGDRDRDSGVVGARPRASPPPQGPLPGPPGALHRWALAVPPGAVAGPRPQQASPPPCGGPGGPGGGPGDALGAAAAGVGAAGVVVGVGGAVGVGGCCSGPGHSKRRRQAPGVGAVGGGSPEREEVGAGYNSEDEYEAAAARIEAMDPATVEQQEHWFEKALRDKKGFIIKQMKEDGACLFRAVADQVYGDQDMHEVVRKHCMDYLMKNADYFSNYVTEDFTTYINRKRKNNCHGNHIEMQAMAEMYNRPVEVYQYSTGTSAVEPINTFHGIHQNEDEPIRVSYHRNIHYNSVVNPNKATIGVGLGLPSFKPGFAEQSLMKNAIKTSEESWIEQQMLEDKKRATDWEATNEAIEEQVARESYLQWLRDQEKQARQVRGPSQPRKASATCSSATAAASSGLEEWTSRSPRQRSSASSPEHPELHAELGMKPPSPGTVLALAKPPSPCAPGTSSQFSAGADRATSPLVSLYPALECRALIQQMSPSAFGLNDWDDDEILASVLAVSQQEYLDSMKKNKVHRDPPPDKS
As to B2, the binding entry in the experiment with Myc-MyD88 (WT) (human) is “binds”.

B3: Flag-OTUD5 (amino acids 1-360) (domain or fragment, UniProt Q96G74 1-360)
chain: MTILPKKKPPPPDADPANEPPPPGPMPPAPRRGGGVGVGGGGTGVGGGDRDRDSGVVGARPRASPPPQGPLPGPPGALHRWALAVPPGAVAGPRPQQASPPPCGGPGGPGGGPGDALGAAAAGVGAAGVVVGVGGAVGVGGCCSGPGHSKRRRQAPGVGAVGGGSPEREEVGAGYNSEDEYEAAAARIEAMDPATVEQQEHWFEKALRDKKGFIIKQMKEDGACLFRAVADQVYGDQDMHEVVRKHCMDYLMKNADYFSNYVTEDFTTYINRKRKNNCHGNHIEMQAMAEMYNRPVEVYQYSTGTSAVEPINTFHGIHQNEDEPIRVSYHRNIHYNSVVNPNKATIGVGLGLPSFKPGFA
On to B3, for which the binding entry with Myc-MyD88 (WT) (human) is “no binding”.

B4: IRAK4 (endogenous, mouse peritoneal macrophages) (enzyme, UniProt Q8R4K2 1-459)
chain: MNKPLTPSTYIRNLNVGILRKLSDFIDPQEGWKKLAVAIKKPSGDDRYNQFHIRRFEALLQTGKSPTCELLFDWGTTNCTVGDLVDLLVQIELFAPATLLLPDAVPQTVKSLPPREAATVAQTHGPCQEKDRTSVMPMPKLEHSCEPPDSSSPDNRSVESSDTRFHSFSFHELKSITNNFDEQPASAGGNRMGEGGFGVVYKGCVNNTIVAVKKLGAMVEISTEELKQQFDQEIKVMATCQHENLVELLGFSSDSDNLCLVYAYMPNGSLLDRLSCLDGTPPLSWHTRCKVAQGTANGIRFLHENHHIHRDIKSANILLDKDFTAKISDFGLARASARLAQTVMTSRIVGTTAYMAPEALRGEITPKSDIYSFGVVLLELITGLAAVDENREPQLLLDIKEEIEDEEKTIEDYTDEKMSDADPASVEAMYSAASQCLHEKKNRRPDIAKVQQLLQEMSA
On to B4, for which the binding result in experiment [2] is on record as “binds”.

B5: Myc-TAK1 (enzyme, UniProt O43318 1-606)
chain: MSTASAASSSSSSSAGEMIEAPSQVLNFEEIDYKEIEVEEVVGRGAFGVVCKAKWRAKDVAIKQIESESERKAFIVELRQLSRVNHPNIVKLYGACLNPVCLVMEYAEGGSLYNVLHGAEPLPYYTAAHAMSWCLQCSQGVAYLHSMQPKALIHRDLKPPNLLLVAGGTVLKICDFGTACDIQTHMTNNKGSAAWMAPEVFEGSNYSEKCDVFSWGIILWEVITRRKPFDEIGGPAFRIMWAVHNGTRPPLIKNLPKPIESLMTRCWSKDPSQRPSMEEIVKIMTHLMRYFPGADEPLQYPCQYSDEGQSNSATSTGSFMDIASTNTSNKSDTNMEQVPATNDTIKRLESKLLKNQAKQQSESGRLSLGASRGSSVESLPPTSEGKRMSADMSEIEARIAATTAYSKPKRGHRKTASFGNILDVPEIVISGNGQPRRRSIQDLTVTGTEPGQVSSRSSSPSVRMITTSGPTSEKPTRSHPWTPDDSTDTNGSDNSIPMAYLTLDHQLQPLAPCPNSKESMAVFEQHCKMAQEYMKVQTEIALLLQRKQELVAELDQDEKDQQNTSRLVQEHKKLLDENKSLSTYYQQCKKQLEVIRSQQQKRQGTS
For the molecule B5, the binding entry in the experiment with Flag-OTUD5 (WT) (human) is given as “no binding”.

B6: Myc-IKKβ (enzyme, UniProt O14920 1-756)
chain: MSWSPSLTTQTCGAWEMKERLGTGGFGNVIRWHNQETGEQIAIKQCRQELSPRNRERWCLEIQIMRRLTHPNVVAARDVPEGMQNLAPNDLPLLAMEYCQGGDLRKYLNQFENCCGLREGAILTLLSDIASALRYLHENRIIHRDLKPENIVLQQGEQRLIHKIIDLGYAKELDQGSLCTSFVGTLQYLAPELLEQQKYTVTVDYWSFGTLAFECITGFRPFLPNWQPVQWHSKVRQKSEVDIVVSEDLNGTVKFSSSLPYPNNLNSVLAERLEKWLQLMLMWHPRQRGTDPTYGPNGCFKALDDILNLKLVHILNMVTGTIHTYPVTEDESLQSLKARIQQDTGIPEEDQELLQEAGLALIPDKPATQCISDGKLNEGHTLDMDLVFLFDNSKITYETQISPRPQPESVSCILQEPKRNLAFFQLRKVWGQVWHSIQTLKEDCNRLQQGQRAAMMNLLRNNSCLSKMKNSMASMSQQLKAKLDFFKTSIQIDLEKYSEQTEFGITSDKLLLAWREMEQAVELCGRENEVKLLVERMMALQTDIVDLQRSPMGRKQGGTLDDLEEQARELYRRLREKPRDQRTEGDSQEMVRLLLQAIQSFEKKVRVIYTQLSKTVVCKQKALELLPKVEEVVSLMNEDEKTVVRLQEKRQKELWNLLKIACSKVRGPVSGSPDSMNASRLSQPGQLMSQPSTASNSLPEPAKKSEELVAEAHNLCTLLENAIQDTVREQDQSFTALDWSWLQTEEEEHSCLEQAS
On to B6, for which the binding result with Flag-OTUD5 (WT) (human) is “no binding”.

B7: IRAK2 (endogenous, mouse peritoneal macrophages) (enzyme, UniProt Q8CFA1 1-622)
chain: MACYIYQLPSWVLDDLCRNIDTLSEWDWMQFASYVITDLTQLRKIKSMERVQGVSITRELLWWWSMRQATVQQLVDLLCHLELYRAAQIVLSWKPVPESTSPLPAFPEAVKPGAVATSRRNLKDEQEKVRPVKPRSLLDTGPIMAGAQRQRPCEMDAPCSLKTDAPDSPQSKYCSTSTSAPKQERLLGLPGDRLFWSEADVVQATEDFDQSHRISEGTFADIYQGQRNGVAFAFKKLREVAGSSPGSMDRFLQAEMQLCLRCCHANVLPLLGFCTGRQFHSLIYPYMANGSLHDRLWAQGNSDMLPWPQRASICSGLLLAVEHLHSLDIIHSNVKSANVLLDQHLNPKLAHPVAHPHPDNKKTKYTVMRTHLFQASAAYLPEHFIRVGQLTKQVDIFSCGIVLAEVLTGIPAMDKDRSPVYLKDLLLSEIPNSTSSVCSRKTSMGKAVVKEICQRHVEKRAGLLPEACEEAWATAVSVCLRRRNASVEEARVSLAGVEEQLRGQLSLPWSRVSEATGSSSNTPEETDDVDNSSLSVPSLVMMASCPGAASSPLFTGHGAAQPSTSGRQEADSSSEACTGPQTPQNATETSWKIEINEAKRRLMENIVLYKEERLDSSELFGP
B7: the binding entry in experiment [2] is listed as “binds”.

Source of the values: publication PMC11164869.
